Binding signal data for 22 molecules are collected here from article PMC12136788.

The other results are listed elsewhere or left out.

Sequences and labels used below:
T1: UNK ZnF1-3 (human, UniProt Q9C0B0 31-174)
T1 sequence: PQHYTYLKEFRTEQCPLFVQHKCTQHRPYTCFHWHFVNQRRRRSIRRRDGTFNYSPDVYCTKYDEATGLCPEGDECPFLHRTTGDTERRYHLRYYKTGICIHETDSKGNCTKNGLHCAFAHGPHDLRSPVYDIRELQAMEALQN

B1: chr20:46266449:46266450:+_ENSG00000124151_ENST00000372004|hu_hu|FALSE|FALSE (ssRNA)
RNA: GGGAGUUCUACAGUCCGACGAUCUUGCUUAGUCCCCAGAUGACUACCAUUUGAGGAUAUGGAAUUAUUGUAAAAGUCAGAACUAGUCAGAUCACCAAGAAUAGCAUCUAGAUUAUCCAAGUCUCCAGAUCCCUCUUCACUUGUCAACAGAGGAUUGAGCAUCA
B2: chr12:73313434:73313435:-_ENSMUSG00000021087_ENSMUST00000021497|mus_mus|FALSE|FALSE (ssRNA)
RNA: GGGAGUUCUACAGUCCGACGAUCCAUAUAUCCUAAGAGUACAGGAAGAGCCUCAAAACACCUGUCUCAAAGUUUGCCUCUAAGAUUAUGGUACCAGGAAAGGGAAACAAUCAAUUUGCAGUAACGAGGAAGGAGAGAGCUGUUCAACAGAGGAUUGAGCAUCA
B3: chr14:66974463:66974464:+_ENSMUSG00000022044_ENSMUST00000074523|mus_hu|mus_mus_mus_hu_False|28_88 (ssRNA)
RNA: GGGAGUUCUACAGUCCGACGAUCUUGUAGGACGACUUAUUCAGGGGAUCAGACAAGAAGCAGGAGCAGAACAAGGACACCAGCGGGAGCUCCUUCAUCUUCUCUUUAUAGGCUGCAAGGGUCAUGUUUCUGGGAUCUGGUGGCCAACAGAGGAUUGAGCAUCA
B4: chr7:138035701:138035702:+_ENSMUSG00000040268_ENSMUST00000120441|mus_mus|motif|central (ssRNA)
RNA: GGGAGUUCUACAGUCCGACGAUCUCCUGCAUUCAUAACAAAACAAAACUCUGCCUUUGGCCUUAACUUAGUUGCAUCGCGGACCUUUGAAAUGUAGGUAAGUUUAAUGGCUCCAACCCGUGACGAUCCUGAAGGCAGGUUCUGCAACAGAGGAUUGAGCAUCA
B5: chr12:46321692:46321693:-_ENSG00000139218_ENST00000369367|hu_mus|motif|central (ssRNA)
RNA: GGGAGUUCUACAGUCCGACGAUCGCUCUCUACAAAUGCUUCUAUGUUUACUGCAGAAUCGUUCAAGUCAGUACUUUCGGCAGUGAGACUCUCCCCUGUUCUUUCAUCGUUCAAGUCAGUACUUUCUACAGUGAGACUCUCCUCCAACAGAGGAUUGAGCAUCA
B6: 96632373_96634150_447_3pUTR_ENSMUSG00000020876_ENSMUST00000107661|mouse|control|control (ssRNA)
RNA: GGGAGUUCUACAGUCCGACGAUCGCUUCUCAAUGAACUCAUCGGAGCCGCCAAAGAAAGUGGACUUCCCAGGAAGCUCCGGAACAGGCACCAAGCCGGCGUUCCUCUGCAGCUGCUUCCUCAGCCACACAAACUCACGGUAGCCAACAGAGGAUUGAGCAUCA
B7: chr3:102850973:102850974:+_ENSMUSG00000068823_ENSMUST00000029446|mus_mus|FALSE|FALSE (ssRNA)
RNA: GGGAGUUCUACAGUCCGACGAUCACGAUGAUCUGAAUGGGAAUGGAAUGAAACCGUGCCCUUGGGAAGUUUUUUAAUCCUAAUAGCAUGAUUUCUUUGGGCAGAGAGCAUAUCAGGAACCACAGUAAACUCUACUUCAUCUGCCAACAGAGGAUUGAGCAUCA
B8: chr4:40633508:40633509:-_ENSMUSG00000028411_ENSMUST00000129021|mus_mus|motif|central (ssRNA)
RNA: GGGAGUUCUACAGUCCGACGAUCGAAGAAGUGUACGCUUUAGUUCAGGAUUGAACGGAGCAUAGGCAAUGCGGACAGAUGCGGGCACUGCCCUUGGUCGCCGAGACGAGUGUCACCCGCCCCAGUGCUUCCUGAGGUGCUCUUCAACAGAGGAUUGAGCAUCA
B9: chr17:45747064:45747065:+_ENSG00000108424_ENST00000290158|hu_hu|hu_hu_hu_mus_True|18_108 (ssRNA)
RNA: GGGAGUUCUACAGUCCGACGAUCGCCUACAGUCCAUGCUGUUGUGUCUCGAACAACUACACUGGGGUCUUUCAUUAGUUCUAUUAGGGUGGGCAUAGCCUGUAUGACUAAUGGUUUGAGCUGACUGGGCUCUGGUCCUUCCAACAACAGAGGAUUGAGCAUCA
B10: chr8:21939936:21939937:+_ENSG00000158856_ENST00000443491|hu_mus|FALSE|FALSE (ssRNA)
RNA: GGGAGUUCUACAGUCCGACGAUCUCCCAGCAUGAUCACACACACAGUGGACAGGGAGUGCCAGGGUCUGGGUAAAAACGAAACCCAGACCUGGGCAAAAUAGAUAUAUAUAUAUGUAUAAUUAUAUACACGUACAUAUGUGGACAACAGAGGAUUGAGCAUCA
B11: chr16:33771563:33771564:+_ENSMUSG00000075254_ENSMUST00000152782|mus_hu|FALSE|FALSE (ssRNA)
RNA: GGGAGUUCUACAGUCCGACGAUCCAGACUUAGAGUGGAUAUAAGUAUAAAAAUAACCAAAUUCUUACAAAUAAUACUUUGCUGCUACAGUACUGAAUAAUUAGUGGAGGUUGCAAUUAUAAUACAACUUUAAAUAACAUUCUCCAACAGAGGAUUGAGCAUCA
B12: chr7:90019206:90019207:+_ENSMUSG00000057706_ENSMUST00000082237|mus_hu|FALSE|FALSE (ssRNA)
RNA: GGGAGUUCUACAGUCCGACGAUCUUUAAUAAAGCUGCAGUAUCCUGGUUUCACAGGAACUCCUGGCCCUUCCACGAACAUUCAAAAAGGAUCCACUGUGUUCUAUAAUAAGUAUCAUAGGAACCCACCCACAAAGGGGAACACCAACAGAGGAUUGAGCAUCA
B13: chr3:9412954:9412955:+_ENSG00000134077_ENST00000452837|hu_mus|hu_hu_hu_mus_False|1_68 (ssRNA)
RNA: GGGAGUUCUACAGUCCGACGAUCGGUUGAUAUCUCUUCUUUGAUGGCUGGAUUUUCAUAAUAGUCCAAGAUAUGAGAAUCUGAAGUGCUGCUGGCAUGCUUUUUCUUACCAUCUUUCUCAUCUGCUUUGUCUCCUUGUCCAUUCAACAGAGGAUUGAGCAUCA
B14: chr19:21355511:21355512:+_ENSMUSG00000024750_ENSMUST00000025659|mus_hu|motif|central (ssRNA)
RNA: GGGAGUUCUACAGUCCGACGAUCCAUUUCUUCCUGCUUCCAAAGAAUAUGUUGUGAAAUUAAAGAGGGUGAAGUUUAACGGUGGUAGAAGUAGACUGCCAGUCCUUUUCUGGUGUACCAUUUUAAAAAAAUACAGGCACAUAACAACAGAGGAUUGAGCAUCA
B15: chr1:163112212:163112213:-_ENSG00000143248_ENST00000313961|hu_hu|hu_hu_hu_mus_False|1_78 (ssRNA)
RNA: GGGAGUUCUACAGUCCGACGAUCUUUUAUUAUCAGUAAGAGUGAGUUACAUACUAGAUAAAGUAUUGGAUACAAUAAUCAGGAAACAAACACUAUUGGUCCAGAAUUUAAAACUUUAUGAGCGAAGUGCUGGCACAGGAUUUACAACAGAGGAUUGAGCAUCA
B16: chr3:10015032:10015033:+_ENSMUSG00000027533_ENSMUST00000029046|mus_mus|mus_mus_mus_hu_True|48_88 (ssRNA)
RNA: GGGAGUUCUACAGUCCGACGAUCGUUUUUACCAUCACAAGUGAUGAUACAGUCUGGCUUGGCCAUUGCGCCCAUUUUUCGCAAAGCCAGUCCUACUCCUAGCUCCUUCAUGUAUUCAUCAAAGCCUUUGCUGUCCACCAGGCGCAACAGAGGAUUGAGCAUCA
B17: chr3:148802587:148802588:-_ENSG00000071794_ENST00000310053|hu_mus|hu_hu_hu_mus_False|58_108 (ssRNA)
RNA: GGGAGUUCUACAGUCCGACGAUCUCCAACCACAUGACCUCUCAUAGUUCCAAAUAAAACCAAAUCUUGCUCUUCAUCACUAGUUAGGAAGUCAUCUGGAGGAAUAAUGUCUUGGAAUUCAAAAUGUGGCAAGAAAGUUGAGUACAACAGAGGAUUGAGCAUCA
B18: 130596237_130596357_540_3pUTR_ENSMUSG00000031256_ENSMUST00000033609|mouse|control|control (ssRNA)
RNA: GGGAGUUCUACAGUCCGACGAUCCAUCAACUCAAACAUCUGUUCUGGUGGAAGACUGGCAACUGCUUUGCUAAUGGAUUCAGGGGCAUCCUCAGGGCUGAUGCUUUCUCCAUAAGGUGACUCUAUGACAGGUGCACCAGUGCCCAACAGAGGAUUGAGCAUCA
B19: chr15:81306141:81306142:+_ENSMUSG00000022400_ENSMUST00000023036|mus_mus|FALSE|FALSE (ssRNA)
RNA: GGGAGUUCUACAGUCCGACGAUCAGUACCUGGGAUUACAGGCAUAUAUGCAAACUGUCCAAACAUCAGUUUUCAGGUGAACUUUAUGAUGACUUUAUUGCCAGCCAAGAUUACACAGUACGAUUUUUUGGGUCAACUUUUGUUCAACAGAGGAUUGAGCAUCA
B20: chr11:29999759:29999760:-_ENSMUSG00000020315_ENSMUST00000011877|mus_mus|FALSE|FALSE (ssRNA)
RNA: GGGAGUUCUACAGUCCGACGAUCAUACACUUAGCAAUGAUUUAAAGGGUUUAUUAUACAUCUAGUUUAUUAUACUUUGUACUAGAAUUAUCUCAAACAUACAAUAUAAUGUAUUUCAGAAAAAAAGAGACUGAAAUUACAGAUCAACAGAGGAUUGAGCAUCA
B21: 31148763_31148883_1967_3pUTR_ENSMUSG00000062661_ENSMUST00000000199|mouse|control|control (ssRNA)
RNA: GGGAGUUCUACAGUCCGACGAUCACAUGCCACACCUACCCAGCCUCUUAGCAUCAGGGAGGCUGAGGCCAGCAGUUUGCAGGGAAACCCACUUCAUACGCUCUCUACUGUGUGCCGGACACACUCUCCUAGCUCCUACUCUCACAACAGAGGAUUGAGCAUCA
B22: chr14:35182089:35182090:-_ENSG00000165410_ENST00000422678|hu_mus|FALSE|FALSE (ssRNA)
RNA: GGGAGUUCUACAGUCCGACGAUCCUUAAGAUCAAAUGGCACUUGGCUAUUAUUUUAUAGUGGCUUUCCUUCAAGGGAAACUACAACACUGCCCCCCAGUUUCUCUCCCAGCGUCGAGCGGUCCUUAAUAUCGUCCAAGCCAUUCAACAGAGGAUUGAGCAUCA

For this experiment, the target named is T1, UNK ZnF1-3. Briefly: nsRBNS (natural sequence RNA bind-n-seq); RBNS binding buffer (assumed for nsRBNS): 25 mM Tris pH 7.5, 150 mM KCl, 3 mM MgCl2, 0.01% Triton X-100, 500 ug/ml BSA, 20 U/ml SUPERase-In, 4 C; UNK is unkempt and MSI1 is Musashi-1; names of the RNAs are library labels; protein concentration not given here; high values mean tight binding.
In turn, B1 registered a binding signal of 1.02 enrichment R.

As for B2, the binding signal came out at 2.3 enrichment R.

Turning to B3, the binding signal came to 1.77 enrichment R.

On to B4, for which the binding signal was determined as 0.851 enrichment R.

B5 registered a binding signal of 0.581 enrichment R.

For B6, the binding signal was determined as 0.85 enrichment R.

For B7, the binding signal was found to be 1.24 enrichment R.

As to B8, the binding signal is 0.643 enrichment R.

The molecule B9 displayed a binding signal of 0.898 enrichment R.

Molecule B10 came in with a binding signal of 0.543 enrichment R.

B11 registered a binding signal of 1.49 enrichment R.

B12 yielded a binding signal of 1.27 enrichment R.

Molecule B13 came in with a binding signal of 0.438 enrichment R.

Take B14: the binding signal was found to be 0.998 enrichment R.

On to B15, for which the binding signal came to 0.98 enrichment R.

As for B16, the binding signal is 0.652 enrichment R.

With B17, the binding signal worked out at 1.2 enrichment R.

Consider B18, for which the binding signal came out at 1.6 enrichment R.

For the molecule B19, the binding signal came out at 0.605 enrichment R.

In the case of B20, the binding signal was determined as 1.2 enrichment R.

B21 registered a binding signal of 1.14 enrichment R.

B22 returned a binding signal of 1.08 enrichment R.
